{"source": "PubChem BioAssay AID624414", "about": "(National Center for Advancing Translational Sciences (NCATS), 2012)", "note": "Hit rate of the full screen: of about 410,000 compounds, about 480 (0.12%) were called active. The shares of active, inactive and inconclusive entries below differ from those in the screen. Cut-off read from the data, not from the text of the source: active = activation above about 50%; inconclusive = mostly about 30% to 49%; inactive = weaker than that.", "data": [{"biological_target": "Mucolipin-1 (Homo sapiens) (UniProt Q9GZU1)", "sequence (Q9GZU1 whole entry, looked up)": "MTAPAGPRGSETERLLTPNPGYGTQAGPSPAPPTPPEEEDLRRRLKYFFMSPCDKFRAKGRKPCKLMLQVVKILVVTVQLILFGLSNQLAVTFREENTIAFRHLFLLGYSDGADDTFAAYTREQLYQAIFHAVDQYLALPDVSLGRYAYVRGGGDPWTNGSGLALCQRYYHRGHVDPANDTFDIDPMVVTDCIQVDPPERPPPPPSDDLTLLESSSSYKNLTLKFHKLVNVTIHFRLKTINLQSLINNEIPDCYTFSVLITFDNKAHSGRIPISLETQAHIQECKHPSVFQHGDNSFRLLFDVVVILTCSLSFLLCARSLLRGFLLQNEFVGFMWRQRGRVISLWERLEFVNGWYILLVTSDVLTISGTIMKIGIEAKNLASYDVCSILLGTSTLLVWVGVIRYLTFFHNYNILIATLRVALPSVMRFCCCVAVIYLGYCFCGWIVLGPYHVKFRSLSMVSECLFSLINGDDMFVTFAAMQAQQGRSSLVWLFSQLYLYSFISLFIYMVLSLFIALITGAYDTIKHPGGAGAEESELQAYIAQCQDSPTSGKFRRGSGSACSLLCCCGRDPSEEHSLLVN", "experiment": "qHTS for Agonists of the Human Mucolipin Transient Receptor Potential 1 (TRPML1); note: 0% is about no effect", "settings": "TRPML1-expressing cells, Ca2+ dye fluorescence, FDSS; active compounds read high", "method_in_brief": "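TRPML1-DL cells, Tet-induced overnight (~16 h, 37 degrees C), loaded 45-90 min at room temperature with Ca8 no-wash calcium dye plus quencher. FDSS fluorescence: 10 s baseline, compound pin-transfer, 110 s agonist read, then EC80 54-4 (4uM final) and 110 s antagonist read.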", "values": [{"smiles": "CCC(CC)C(=O)N1c2ccccc2C(C)(c2ccccc2)CC1(C)C", "note": "(stereo not drawn)", "activation": "inconclusive: 31%"}, {"smiles": "CN(C)c1ncc(S(=O)(=O)c2ccc(Cl)cc2)c(-c2ccc(Cl)cc2Cl)n1", "activation": "inconclusive: 46%"}, {"smiles": "Cc1cc(C)c(NC(=O)c2c(C)oc3c2C2=NCCN2C=N3)c(C)c1", "activation": "inactive: -0.823%"}, {"smiles": "Cc1ccc(NC(=O)CSc2nnc(-c3ccccc3)n2C)cc1", "activation": "inactive: -1.19%"}, {"smiles": "CCCNC(=O)Cn1c(=O)/c(=C/c2ccc(-c3ccc([N+](=O)[O-])cc3)o2)s/c1=C\\C(=O)C(C)(C)C", "activation": "inconclusive: 49.3%"}, {"smiles": "CCCCCn1c(CN2CC(C)OC(C)C2)nc2c1c(=O)n(C)c(=O)n2C", "note": "(stereo not drawn)", "activation": "inactive: 0.145%"}, {"smiles": "c1nc(SSc2ncc3n[nH]nc3n2)nc2n[nH]nc12", "activation": "inactive: -0.317%"}, {"smiles": "CNc1ccc2c3c(cccc13)C(=O)N(C)C2=O", "activation": "active: 78.3%"}, {"smiles": "O=c1c2cc(Br)ccc2nc(-c2cccc(C(F)(F)F)c2)n1O", "activation": "inconclusive: 35.1%"}, {"smiles": "CC(C)(C)c1ccc(/C=C/C(=O)Nc2nncs2)cc1", "activation": "inactive: 1.83%"}, {"smiles": "Cc1ccc(S(=O)(=O)/N=C2/NC(=O)/C(=C\\c3cc(Br)cc(Br)c3O)S2)cc1", "activation": "inconclusive: 47%"}, {"smiles": "O=C(COc1ccc(-c2ccccc2)cc1)N/N=C/c1cc(O)ccc1Br", "activation": "inconclusive: 31.2%"}, {"smiles": "COc1cc(/C=C/C(=O)CC(=O)/C=C/c2ccc(O)c(OC)c2)ccc1O", "activation": "inconclusive: 48.2%"}, {"smiles": "COc1cccc(CNC(=O)c2ccc3nc(-c4ccc(F)cc4)c(-c4ccc(F)cc4)nc3c2)c1", "activation": "inconclusive: 39.8%"}, {"smiles": "Cc1c(CCC(=O)NCC(=O)NCC(=O)O)c(=O)oc2cc3oc4c(c3cc12)CCCC4", "activation": "inconclusive: 40.2%"}, {"smiles": "c1ccc(-c2cn3nc(-c4ccccc4)c(-c4ccccc4)nc3n2)cc1", "activation": "inconclusive: 31.4%"}, {"smiles": "CCN(CC)c1ccc2cc(NC(=O)CCC(=O)O)c(=O)oc2c1", "activation": "inconclusive: 37.2%"}, {"smiles": "O=C(OCc1cc(=O)n2nc(-c3cccs3)sc2n1)c1ccc(Cl)cc1", "activation": "inactive: -0.829%"}, {"smiles": "O=C(CN1N=C(c2ccc(Cl)cc2)CCC1=O)NCCc1ccc(Cl)cc1", "activation": "inactive: 0.372%"}, {"smiles": "Cc1ccc(S(=O)(=O)N2C[C@@H]3[C@H]4CC[C@H](C4)[C@@H]3[C@@H](C)[C@@H]2C2CCCCC2=O)cc1", "note": "(stereo partly drawn)", "activation": "active: 92.5%"}, {"smiles": "COc1cc(/C=C(\\C#N)c2nc3ccccc3[nH]2)cc(OC)c1O", "activation": "inconclusive: 31.3%"}, {"smiles": "Cc1ccc(S(=O)(=O)N2C[C@H]3C(=O)C[C@@H](c4ccccc4)N(S(=O)(=O)c4ccc(C)cc4)[C@H]3C[C@H]2c2cccc(Cl)c2)cc1", "activation": "inconclusive: 50%"}, {"smiles": "COc1ccc(-n2c(O)c(/C=N/NS(=O)(=O)c3cc(C)ccc3C)c3ccccc3c2=O)cc1OC", "activation": "inconclusive: 46.7%"}, {"smiles": "CCN(CC)c1ccc2cc(C(N)=O)/c(=N\\NC(=O)c3ccncc3)oc2c1", "activation": "active: 81%"}, {"smiles": "COc1cc2[nH]c(=O)c(C(=O)NCCCN3CCCCC3)c(O)c2cc1OC", "activation": "inactive: 0.193%"}, {"smiles": "N=C1/C(=C\\c2coc3ccc(O)cc3c2=O)C(=O)N=C2SC=CN12", "activation": "inconclusive: 43.6%"}, {"smiles": "CCCN1CNc2c(c(=O)[nH]c(=S)n2Cc2ccc(OC)c(OC)c2)C1", "activation": "inactive: -0.162%"}, {"smiles": "Cc1cc2c(cc1C)NC(c1c(C)n(C)n(-c3ccccc3)c1=O)C1=C(CC(C)(C)CC1=O)N2", "note": "(stereo not drawn)", "activation": "inconclusive: 39.5%"}, {"smiles": "Cc1ccc(C(=O)NC(=S)NNC(=O)c2ccccc2)cc1", "activation": "active: 69.5%"}, {"smiles": "COc1cc(/C=C2/SC(=S)N(Cc3ccccc3)C2=O)ccc1O", "activation": "inconclusive: 41.9%"}, {"smiles": "CCCNS(=O)(=O)c1ccc(NC(=O)c2ccccn2)cc1", "activation": "inconclusive: 44.2%"}, {"smiles": "CC1(C)CC(=O)C(C=NCC2CCN(C(=O)Cc3ccccc3)CC2)=C(O)C1", "activation": "inconclusive: 33%"}, {"smiles": "CCCCCCc1cc2cc(-c3nnc(-c4ccccc4)o3)c(=O)oc2cc1O", "activation": "inconclusive: 43.7%"}, {"smiles": "COc1ccc(N2C(=O)c3cccc4c(N(C)CCO)ccc(c34)C2=O)cc1", "activation": "inconclusive: 36.4%"}, {"smiles": "C=CCNC(=S)Nc1sc2c(c1C(=O)OCC)CCN(C(=O)OCC)C2", "activation": "inactive: 2.15%"}, {"smiles": "CCOC(=O)c1c(C(=O)OCC)c(C)n(N2C(=O)CSC2=S)c1C", "activation": "inconclusive: 33.4%"}, {"smiles": "O=C1C=CC(=O)c2c(O)c(N3CCN(CCOCCO)CC3)c(Br)c(O)c21", "activation": "inactive: 0.229%"}, {"smiles": "Cc1ccc(C(=O)N(Cc2cccs2)C2CCS(=O)(=O)C2)cc1", "note": "(stereo not drawn)", "activation": "inactive: 0.128%"}, {"smiles": "Cc1noc(C)c1CSCC(=O)Nc1cccc(C(F)(F)F)c1", "activation": "inactive: 1.42%"}, {"smiles": "CN1CCN(S(=O)(=O)c2cccc(C(=O)Nc3cc(Cl)ccc3N3CCOCC3)c2)CC1", "activation": "inconclusive: 40%"}, {"smiles": "CCN(C)c1ccc(/C=C/c2ccnc3ccccc23)cc1", "activation": "inconclusive: 31.5%"}, {"smiles": "O=C(CCCn1c(=O)[nH]c2ccc(Br)cc2c1=O)NCc1ccc(Cl)cc1", "activation": "inactive: -1.05%"}, {"smiles": "COc1ccc(C(=O)c2sc3nc(C)cc(-c4cccs4)c3c2N)cc1", "activation": "inconclusive: 39.8%"}, {"smiles": "COc1cc(N(C)C)ccc1/C=C/c1ccnc2ccccc12", "activation": "inconclusive: 45.4%"}, {"smiles": "CCCCCCc1cc2cc(/C(N)=N/NC(=O)c3ccncc3)c(=O)oc2cc1O", "activation": "inconclusive: 36.5%"}, {"smiles": "O=C1CCCN1CCCNc1nc(NCc2ccccc2)nc2ccsc12", "activation": "inconclusive: 43.3%"}, {"smiles": "CCN(Cc1ccccc1)C(=O)C1CCN(C/C(C)=C/c2ccccc2)CC1", "activation": "inconclusive: 41.3%"}, {"smiles": "C#CCNC(=O)C[C@@H]1C[C@@]2(C(=O)OCC)CCCC=C2N(Cc2ccc3c(c2)OCO3)C1=O", "activation": "active: 63%"}, {"smiles": "FC(F)(F)c1nc(N2CCCC2)ncc1-c1nnnn1-c1ccccc1", "activation": "active: 52%"}, {"smiles": "O=C(Nc1ccccc1N1CCCC1)C1CCN(S(=O)(=O)c2ccc(F)cc2)CC1", "activation": "inconclusive: 47.2%"}, {"smiles": "Cc1ccc(S(=O)(=O)n2nc(-c3ccccc3)nc2NCc2ccccc2Cl)cc1", "activation": "inactive: 0.598%"}, {"smiles": "CSC1=NSC2=NC(=O)/C(=C\\c3coc4ccccc4c3=O)C(=N)N12", "activation": "active: 76%"}, {"smiles": "COc1cc(/C=C/C(=O)c2ccc3c(c2)OCO3)cc(Cl)c1O", "activation": "active: 55.8%"}]}]}
